# In all, about 120,000 compounds went through this assay and about 5,300 (4.4%) were called active. This list was built around the results that the source calls inconclusive (neither active nor inactive); the mix of calls is not that of the screen. Calls come from the whole dose curve; as a rule, active = well fitted inhibition curve with a large enough effect; inconclusive = small, poorly fitted or top-dose-only effect; inactive = no such curve, though single readings can be large or run the other way. Potencies beside an inconclusive call are fits to weak or partial responses and may not hold up.
# Assay: qHTS Primary assay for Inhibitors of Plasmodium falciparum Dd2 growth in vitro; note: nearly all actives have a fitted effect of over 65% in size;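 for activity, negative = inhibition: plate controls were DMSO vehicle for no effect and reference drug for full effect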
# Settings: P. falciparum Dd2 growth, SYBR Green, 72 h; activity, negative = inhibition: at 28.9 µM (top of the series) unless noted; series mostly up to 28.9 µM
# How it was run: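 Infected erythrocytes (Dd2, 0.3% parasitemia, 2.5% hematocrit final) are added to compound in RPMI-1640/Albumax II medium, grown 72 h at 37C in low oxygen, then lysed with saponin/Triton-X containing SYBR Green and read by fluorescence.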
# Potency is the fitted concentration of half-maximal effect; tags give direction and shape of the fitted curve.
Compound,Potency,"activity, negative = inhibition"
CCOc1ccc(CC(=O)NC2CCN(c3cc(-c4cccs4)[nH]n3)C2)cc1 (stereo unspecified),inactive,–
Cc1cc2c(c(=O)n(-c3ccc(F)cc3)c(=O)n2CC(=O)Nc2ccccc2C(F)(F)F)n1C,inactive,–
O=C(c1cnccn1)N1CCC2(CC1)NC(=O)N(Cc1ccc(F)cc1)C2=O,inactive,–
CC(=O)NCc1cn[nH]c1-c1ccc(Cl)cc1,inactive,–
Cc1ccc(-c2nnc(Nc3ccccc3)c3ccccc23)cc1S(=O)(=O)N1CCOCC1,"inconclusive: 10 µM [inhibitor, partial curve]",–
Cc1cccc(N2CCN(C(=O)c3oc(=O)c4ccccc4c3-c3ccccc3)CC2C)c1 (stereo unspecified),"inconclusive: 17.8 µM [inhibitor, single point]",–
CC1CCC2(CC1)OCC(C(=O)NC(C)c1ccccc1)N2C(=O)c1cccc(Cl)c1 (stereo unspecified),inactive,–
O=c1n(CC2CC2)nc2n1CCN(S(=O)(=O)c1cnc[nH]1)CC2,inactive,–
CN(CC1(C)CCOCC1)C(=O)c1ccc(F)c(Cl)c1,inactive,–
COC(=O)C1=C(C)N=C2SC=C(CC(=O)N(C)Cc3ccco3)N2C1c1cccc(Cl)c1 (stereo unspecified),"inconclusive: 0.631 µM [inhibitor, full curve, poor fit]",–
COc1nccc(N2CCC(CC(=O)NCc3ccccc3F)CC2)n1,inactive,–
CCOC(=O)c1[nH]c(C)c(CCC(=O)Nc2ccccc2C(=O)OC)c1C,"inconclusive: 15.8 µM [inhibitor, single point]",–
O=[S+]([O-])(c1ccccc1)N1CCn2c(nnc2-c2ccc(Cl)cc2)C1,–,inconclusive: -80.7% [inhibitor]
COc1cccc(CN2CCOC3(CCN([S+](=O)([O-])c4ccccc4)CC3)C2=O)c1,inactive,–
CN(C)CC1(O)CCC2(CCN(C(=O)CCc3ccccc3)CC2)CC1,"inconclusive: 20 µM [inhibitor, single point]",–
CN(Cc1ccc(-c2ccccc2)cc1)C(=O)Nc1ccc(Cl)cc1,inactive,–
O=C(c1nc(-c2ccccc2)c2ccccn12)N1CCCC1,"inconclusive: 22.4 µM [inhibitor, single point]",–
O=C(N[C@@H]1CCOC[C@H]1OCCO)c1cc(-c2ccsc2)n[nH]1,inactive,–
O=c1[nH]c(C2CCCN(Cc3ccc(-c4ccsc4)cc3)C2)nc2ccc(F)cc12 (stereo unspecified),"inconclusive: 8.91 µM [inhibitor, partial curve, poor fit]",–
COc1ccc(-c2[nH]ncc2C(=O)NCc2cccc(OC)c2)cc1,inactive,–
Cc1ccc(C(=O)Nc2ccc3c(N4CCCCC4)ncnc3c2)cc1F,active: 6.31 µM,–
CCOc1cccc2cc(-c3cn4c(n3)sc3ccccc34)c(=O)oc12,inactive,–
CC1=C[C@@H](CNC(=O)Nc2ccc(Cl)cc2)[C@H](C(C)C)C[C@H]1CC(=O)N(C)Cc1cccnc1,"inconclusive: 7.94 µM [inhibitor, partial curve, poor fit]",–
Cc1ccc(NC(=O)Nc2cc3c(cc2N2CCCCC2)n(C)c(=O)n3C)cc1Cl,inactive,–

Compound,Potency,"activity, negative = inhibition"
Cc1ccc(C(=O)N[C@H]2CO[C@H]3[C@@H]2OC[C@@H]3Nc2nccc(C(C)(C)C)n2)cc1,active: 11.2 µM,–
Cc1ccccc1C(=O)NC(C(=O)NCC(C)C)C1CCN(C(=O)CC(C)C)CC1 (stereo unspecified),inactive,–
Cn1c(=O)c2c(SCC(=O)NCc3ccco3)nc(-c3ccccc3F)nc2n(C)c1=O,inactive,–
COc1ccc(-c2cc(N3CCC(NC(=O)c4ccc(Cl)cc4OC)CC3)n[nH]2)cc1,inactive,–
CC(=O)NCC(=O)N1CCCn2cc(-c3ccc4c(c3)OCO4)nc21,inactive,–
CC1CCC(NC(=O)c2ccc3c(c2)N(Cc2cccc(Cl)c2)C(=O)c2ccccc2S3=O)CC1 (stereo unspecified),"inconclusive: 10 µM [inhibitor, single point]",–
CCNc1cc(N2CCC(CCC(=O)Nc3cccc(OC)c3)CC2)ncn1,"inconclusive: 8.91 µM [inhibitor, partial curve]",–
Cc1nc(N2CCC(NC(=O)C(C)Oc3ccccc3)CC2)cc(C(F)(F)F)n1 (stereo unspecified),"inconclusive: 1.26 µM [inhibitor, partial curve, poor fit]",–
N[C@H]1[C@H](O)[C@@H](N2CCCCC2)[C@@H]2OC[C@H]1O2,inactive,–
O=C1c2c(nc(COc3ccccc3)n2Cc2ccccc2)NCCN1Cc1cccc(Cl)c1,"inconclusive: 8.91 µM [inhibitor, partial curve, poor fit]",–
Cc1ccc(Cl)cc1N1CCN(C(=O)CCSCc2ccccc2F)CC1,inactive,–
COc1ccc2cc(C(=O)N3CCC(Cc4ccc(C(=O)NC5CC5)cc4)CC3)[nH]c2c1,active: 4.47 µM,–
Cn1nc(C(=O)N2CCCN(S(=O)(=O)c3ccccc3)CCC(=O)NCC2)c2ccccc21,"inconclusive: 20 µM [inhibitor, single point]",–
CCc1ccc(-c2cc(C)no2)cc1S(=O)(=O)N1CCN(c2cccc(Cl)c2)CC1,"inconclusive: 17.8 µM [inhibitor, single point]",–
Cc1c(C(=O)Nc2ccc(Br)cc2F)oc2ccc(S(=O)(=O)N3CCC4(CC3)OCCO4)cc12,active: 12.6 µM,–
COc1ccc(NC(=O)c2oc3ccc(S(=O)(=O)N(C)C4CCCCC4)cc3c2C)cc1Cl,"inconclusive: 17.8 µM [inhibitor, single point]",–
CC(C)CCNC(=O)c1ccc(N2CC3CC(C2)[C@H]2CCCC(=O)N2C3)nc1 (stereo partly specified),inactive,–
Cc1cc(N2CCN(C)CC2)nc2ccc(NC(=O)Nc3ccccc3)cc12,"inconclusive: 2.24 µM [inhibitor, full curve, poor fit]",–
Cc1cc(S(=O)(=O)N(C)CC2CCOCC2)ccc1Cl,"inconclusive: 1.26 µM [inhibitor, partial curve, poor fit]",–
CN1C(=O)[C@H]2CN(Cc3c[nH]c4ccccc34)C[C@H]2C1=O,inactive,–
COc1cccc(-n2c(=O)c3c4c(sc3n(Cc3ccc(F)cc3Cl)c2=O)CCCC4)c1,inactive,–
CCOC(=O)c1ccc(NC(=O)c2c(C)oc3nc(C)nc(N4CCCC4)c23)cc1,"inconclusive: 10 µM [inhibitor, single point]",–
Cc1ccc2c(c1)C(Cc1nc3ccccc3c(=O)n1-c1ccc(Br)cc1)C(=O)N2 (stereo unspecified),inactive,–
COc1ccc(CN2C(=O)[C@@H]3C[C@@H](CN3C3CCC3)Oc3ccccc32)cc1,"inconclusive: 15.8 µM [inhibitor, single point]",–

Compound,Potency,"activity, negative = inhibition"
COc1ccc(-c2nnc3ccc(NCC(C)C)nn23)nc1,"inconclusive: 17.8 µM [inhibitor, single point]",–
CCN(CC)Cc1cnc2c(C(=O)NCCc3c[nH]c4ccccc34)cnn2c1,active: 8.91 µM,–
CC(=O)N1CCC(C2CCN(Cc3ccccc3F)C2)CC1 (stereo unspecified),"inconclusive: 3.98 µM [inhibitor, single point]",–
O=C(c1cccs1)C1CCCN(C(=O)c2ccc3nccn3c2)C1 (stereo unspecified),inactive,–
O=C(NCCc1ccccc1)C(=O)NCC(c1cccnc1)N1CCN(c2ccc(F)cc2)CC1 (stereo unspecified),"inconclusive: 20 µM [inhibitor, single point]",–
CCCn1cnc2c1CN(S(=O)(=O)c1cccc3c(N(C)C)cccc13)[C@H](C(=O)OC)C2,"inconclusive: 11.2 µM [inhibitor, single point]",–
O=C1NC(=NC2CCCCC2)C2(CCN(CC3CC3)C2)N1c1cccnc1 (stereo unspecified),inactive,–
O=C(NC1CCN(c2cc(-c3cccs3)[nH]n2)C1)c1cc(Cl)ccc1F (stereo unspecified),"inconclusive: 0.708 µM [inhibitor, partial curve, poor fit]",–
C=CCNC(=O)C[C@@H]1CCN(S(=O)(=O)c2ccccc2)C[C@@H]1CC,inactive,–
CC(C)CCN1CCC2(CC1)OC(=O)N(Cc1ccc(O)cc1)C2(C)c1ccccc1 (stereo unspecified),"inconclusive: 6.31 µM [inhibitor, partial curve, poor fit]",–
O=C(c1ccco1)c1cn(CCOc2ccc(Cl)cc2)c2ccccc12,"inconclusive: 1 µM [inhibitor, partial curve, poor fit]",–
CC(=O)N1CCNc2cc(-c3ccc(Oc4ccccc4)cc3)ncc2C1,"inconclusive: 31.6 µM [inhibitor, single point]",–
Cc1noc(-c2ccc(OC3CN(C(=O)Nc4cccc(F)c4)C3)cc2)n1,"inconclusive: 3.98 µM [inhibitor, partial curve, poor fit]",–
O=C(NC[C@H]1O[C@H](Cc2cc(COc3ccccc3)on2)CC[C@@H]1O)Nc1ccc(F)cc1,inactive,–
CN1CC2(CCN(Cc3cn(C)c4ccccc34)CC2)CC1C(=O)N1CCOCC1 (stereo unspecified),"inconclusive: 1 µM [inhibitor, single point]",–
CC(C)(CC(=O)O)CC(=O)N1Cc2[nH]cnc2C[C@H]1c1nc(Cc2ccccc2)no1,inactive,–
Cc1ccc(C)c(CN2C[C@@H]3C(=O)N(C)C(=O)[C@@H]3C2)c1,inactive,–
CN(C)c1ccc(C(CNS(=O)(=O)c2cc(F)ccc2F)N2CCOCC2)cc1 (stereo unspecified),inactive,–
COc1ccc(NC(=O)C2CCN(S(=O)(=O)c3c(C)noc3/C=C/c3ccco3)CC2)cc1,"inconclusive: 12.6 µM [inhibitor, single point]",–
O=C(COc1ccc(-c2nnc3n2CCCC3)cc1)N1CCN(c2ccccc2F)CC1,"inconclusive: 3.55 µM [inhibitor, partial curve, poor fit]",–
Cc1c(Cl)cccc1NC(=O)N1C[C@@H](F)C[C@H]1C(=O)N1CCCCC1,inactive,–
CC(C)(N)C(=O)N1CCCC(N2CCN(c3cccc(Cl)c3)CC2)C1 (stereo unspecified),"inconclusive: 7.94 µM [inhibitor, single point]",–
CCCCS(=O)(=O)NC1CCc2nn(CC3CC3)c(=O)n2CC1 (stereo unspecified),inactive,–

# — PubChem BioAssay AID1347417 (National Center for Advancing Translational Sciences (NCATS), 2020)
